The list shows a part of the results. Sequences were assembled here from the parent chain. Values near 0.05 are background.
B1: TEV protease; numbered along this chain (parent)
chain: MGESLFKGPRDYNPISSSICHLTNESDGHTTSLYGIGFGPFIITNKHLFRRNNGTLVVQSLHGVFKVKDTTTLQQHLVDGRDMIIIRMPKDFPPFPQKLKFREPQREERICLVTTNFQTKSMSSMVSDTSCTFPSGDGIFWKHWIQTKDGQCGSPLVSTRDGFIVGIHSASNFTNTNNYFTSVPKNFMELLTNQEAQQWVSGWRLNADSVLWGGHKVFMVKPEEPFQPVKEATQL

Variants of: B1
Assay: raw area under fraction-flipped curve 0-4 h after induction (AUC4h, not background-subtracted), DNA-recorder readout of cleavage of the substrate (dimensionless); higher = more cleavage of the substrate by the protease variant
Settings: temperature: 34 °C; time window: 0-4 h after rhamnose induction
Procedure: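 In vivo DNA recorder in E. coli TOP10(DE3) ΔrhaA at 34 °C. Each TEVp single-site mutant (parent TEVp 0) is paired with a single-site variant of the 7-mer TEVs (canonical ENLYFQ|S). The substrate sits between flexible linkers in a Bxb1-sfGFP-TEVs-SsrA fusion, so cleavage stabilises Bxb1 and speeds flipping of a recombination array, read by NGS. The value is the raw area under the fraction-flipped curve over 0-4 h after rhamnose induction (AUC4h), with ≥20 reads per time point. It is not background-subtracted; inactive controls average about 0.047.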
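Also: Bxb1 expression induced with 0.2% (w/v) L-rhamnose at OD600 near 0.5, cultures sampled hourly, flipped fraction per protease–substrate barcode pair counted by paired-end Illumina sequencing.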

MGESLFKGPRDYNPISSSICHLTNESDGHTTSLYGIGFGPFIITNKHLFRRNNGTLVVQSLHGVFKVKDTTTLQQHLVDGRDMIIIRMPKDFPPFPQKLKFREPQREERICLVTTNFQTKSMSSMVSDTSCTFPSGDGIFWKHWIQTKDGQCGSPLVSTRDGFIVGIHSASNFTNTNNYFTSVPKNFMELLTNQEAQQWVSGWRLQADSVLWGGHKVFMVKPEEPFQPVKEATQL [N206Q]
area with substrate ENLYFCS: 0.0634 | area with substrate ENLYFDS: 0.0782 | area with substrate ENLYFES: 0.0813 | area with substrate ENLYFFS: 0.0546 | area with substrate ENLYFIS: 0.0524 | area with substrate ENLYFLS: 0.0558 | area with substrate ENLYFMS: 0.0571 | area with substrate ENLYFPS: 0.0523 | area with substrate ENLYFSS: 0.0791 | area with substrate ENLYFVS: 0.0506

MGESLFKGPRDYNPISSSICHLTNESDGHTTSLYGIGFGPFIITNKHLFRRNNGTLVVQSLHGVFKVKDTTTLQQHLVDGRDMIIIRMPKDFPPFPQKLKFREPQREERICLVTTNFQTKSMSSMVSDTSCTFPSGDGIFWKHWIQTKDGQCGSPLVSTRDGFIVGIHSASNFTNTNNYFTSVPKNFMELLTNQEAQQWVSGWRLNAASVLWGGHKVFMVKPEEPFQPVKEATQL [D208A]
area with substrate ENLYFCS: 0.0509 | area with substrate ENLYFGS: 0.0647 | area with substrate ENLYFHS: 0.0512 | area with substrate ENLYFIS: 0.0679 | area with substrate ENLYFKS: 0.0607 | area with substrate ENLYFNS: 0.0602 | area with substrate ENLYFPS: 0.055 | area with substrate ENLYFYS: 0.0645

MGESLFKGPRDYNPISSSICHLTNESDGHTTSLYGIGFGPFIITNKHLFRRNNGTLVVQSLHGVFKVKVTTTLQQHLVDGRDMIIIRMPKDFPPFPQKLKFREPQREERICLVTTNFQTKSMSSMVSDTSCTFPSGDGIFWKHWIQTKDGQCGSPLVSTRDGFIVGIHSASNFTNTNNYFTSVPKNFMELLTNQEAQQWVSGWRLNADSVLWGGHKVFMVKPEEPFQPVKEATQL [D69V]
area with substrate ENLYFCS: 0.0668 | area with substrate ENLYFES: 0.0464 | area with substrate ENLYFFS: 0.0611 | area with substrate ENLYFIS: 0.053 | area with substrate ENLYFKS: 0.0537 | area with substrate ENLYFMS: 0.0543 | area with substrate ENLYFNS: 0.0633 | area with substrate ENLYFPS: 0.0708 | area with substrate ENLYFRS: 0.0505 | area with substrate ENLYFTS: 0.0562 | area with substrate ENLYFVS: 0.0594 | area with substrate ENLYFWS: 0.0514

MGESLFKGPRDYNPISSSICHLTNESDGHTTSLYGIGFGPFIITNKHLFRRNNGTLVVQSLHGVFKVKDTTTLQQHLVDGRDMIIIRMPKDFPPFPQKLKFREPQREERICLVTTNFQTKSMSSMVSDTSCTFPSGDGIFWKHWIQTKDGQCGSPLVSTRDGFIVGIHSASNFTNTNNYTTSVPKNFMELLTNQEAQQWVSGWRLNADSVLWGGHKVFMVKPEEPFQPVKEATQL [F180T]
area with substrate ENLYFCS: 0.0486 | area with substrate ENLYFFS: 0.0653 | area with substrate ENLYFGS: 0.05 | area with substrate ENLYFHS: 0.0554 | area with substrate ENLYFMS: 0.0599 | area with substrate ENLYFNS: 0.0351 | area with substrate ENLYFPS: 0.0646 | area with substrate ENLYFRS: 0.0292 | area with substrate ENLYFTS: 0.049

MGESLFKGPRDYNPISSSIIHLTNESDGHTTSLYGIGFGPFIITNKHLFRRNNGTLVVQSLHGVFKVKDTTTLQQHLVDGRDMIIIRMPKDFPPFPQKLKFREPQREERICLVTTNFQTKSMSSMVSDTSCTFPSGDGIFWKHWIQTKDGQCGSPLVSTRDGFIVGIHSASNFTNTNNYFTSVPKNFMELLTNQEAQQWVSGWRLNADSVLWGGHKVFMVKPEEPFQPVKEATQL [C20I]
area with substrate ENLYFCS: 0.062 | area with substrate ENLYFDS: 0.0595 | area with substrate ENLYFES: 0.0313 | area with substrate ENLYFFS: 0.0778 | area with substrate ENLYFGS: 0.0488 | area with substrate ENLYFIS: 0.0519 | area with substrate ENLYFLS: 0.0561 | area with substrate ENLYFMS: 0.0634 | area with substrate ENLYFNS: 0.0742 | area with substrate ENLYFPS: 0.0582 | area with substrate ENLYFRS: 0.0758 | area with substrate ENLYFWS: 0.0442 | area with substrate ENLYFYS: 0.0724

MGESLFKGPRDYNPISSSICHLTNESDGHTTSLYGIGFGPFIITNKHLFRRNNGTLVVQSLHGVFKVKDTTTLQQHLVDGRDMIIIRMPKDFPPFPQKLKFREPQREERIELVTTNFQTKSMSSMVSDTSCTFPSGDGIFWKHWIQTKDGQCGSPLVSTRDGFIVGIHSASNFTNTNNYFTSVPKNFMELLTNQEAQQWVSGWRLNADSVLWGGHKVFMVKPEEPFQPVKEATQL [C111E]
area with substrate ENLYFCS: 0.0679 | area with substrate ENLYFDS: 0.0647 | area with substrate ENLYFFS: 0.0716 | area with substrate ENLYFGS: 0.0503 | area with substrate ENLYFIS: 0.0562 | area with substrate ENLYFKS: 0.0804 | area with substrate ENLYFLS: 0.0209 | area with substrate ENLYFPS: 0.0891 | area with substrate ENLYFRS: 0.052 | area with substrate ENLYFVS: 0.0587

MGESLFKGPRDYNPISSSICHLTNESDGHTTSLYGIGFGPFIITNKHLFRRNNGTLVVQSLPGVFKVKDTTTLQQHLVDGRDMIIIRMPKDFPPFPQKLKFREPQREERICLVTTNFQTKSMSSMVSDTSCTFPSGDGIFWKHWIQTKDGQCGSPLVSTRDGFIVGIHSASNFTNTNNYFTSVPKNFMELLTNQEAQQWVSGWRLNADSVLWGGHKVFMVKPEEPFQPVKEATQL [H62P]
area with substrate ENLYFCS: 0.051 | area with substrate ENLYFDS: 0.0663 | area with substrate ENLYFIS: 0.0503 | area with substrate ENLYFPS: 0.0535 | area with substrate ENLYFRS: 0.0547 | area with substrate ENLYFSS: 0.0601 | area with substrate ENLYFWS: 0.0617 | area with substrate ENLYFYS: 0.054

MGESLFKGPRDYNPISSSICHLTNESDGHTTSLYGIGFGPFIITNKHLFRRNNGTLVVQSLHGVFKVKDTTTLQSHLVDGRDMIIIRMPKDFPPFPQKLKFREPQREERICLVTTNFQTKSMSSMVSDTSCTFPSGDGIFWKHWIQTKDGQCGSPLVSTRDGFIVGIHSASNFTNTNNYFTSVPKNFMELLTNQEAQQWVSGWRLNADSVLWGGHKVFMVKPEEPFQPVKEATQL [Q75S]
area with substrate ENLYFCS: 0.0511 | area with substrate ENLYFGS: 0.0649 | area with substrate ENLYFHS: 0.0477 | area with substrate ENLYFIS: 0.0721 | area with substrate ENLYFKS: 0.0447 | area with substrate ENLYFPS: 0.0587 | area with substrate ENLYFSS: 0.068 | area with substrate ENLYFVS: 0.0482 | area with substrate ENLYFWS: 0.0556

MGESLFKGPRDYNPISSSICHLTNESDGHTTSLYGIGFGPFIITNKHLFRRNNGTLVVQSLHGVFKVKDTTTLQQHLVDGRDMIIIRMPKDFGPFPQKLKFREPQREERICLVTTNFQTKSMSSMVSDTSCTFPSGDGIFWKHWIQTKDGQCGSPLVSTRDGFIVGIHSASNFTNTNNYFTSVPKNFMELLTNQEAQQWVSGWRLNADSVLWGGHKVFMVKPEEPFQPVKEATQL [P93G]
area with substrate ENLYFCS: 0.0568 | area with substrate ENLYFES: 0.0625 | area with substrate ENLYFFS: 0.0667 | area with substrate ENLYFGS: 0.0463 | area with substrate ENLYFIS: 0.0553 | area with substrate ENLYFLS: 0.0583 | area with substrate ENLYFNS: 0.0543 | area with substrate ENLYFPS: 0.0445 | area with substrate ENLYFRS: 0.0649 | area with substrate ENLYFSS: 0.101 | area with substrate ENLYFTS: 0.0762 | area with substrate ENLYFWS: 0.0548

MGESLFKGPRDYNPISSSICHLTNESDGHTTSLYGIGFGPFIITNKHLFRRNNGTLVVQSLHGVFKVKDTTTLQQHLVDGRDMIIIRMPKDFPPFPQKLKFREPQREERICLVTTNFQTKSMSSMVSDTSCTFPSGDGIFWKHWIQTKDGQCGSPLCSTRDGFIVGIHSASNFTNTNNYFTSVPKNFMELLTNQEAQQWVSGWRLNADSVLWGGHKVFMVKPEEPFQPVKEATQL [V157C]
area with substrate ENLYFCS: 0.0721 | area with substrate ENLYFDS: 0.0236 | area with substrate ENLYFES: 0.0645 | area with substrate ENLYFFS: 0.0714 | area with substrate ENLYFHS: 0.0583 | area with substrate ENLYFIS: 0.0689 | area with substrate ENLYFKS: 0.0558 | area with substrate ENLYFMS: 0.0656 | area with substrate ENLYFNS: 0.0639 | area with substrate ENLYFPS: 0.0519 | area with substrate ENLYFSS: 0.0496 | area with substrate ENLYFTS: 0.0618 | area with substrate ENLYFWS: 0.0615

From the supplement of paper PMC12217912
